The supplement of paper PMC3334620
In all, about 33,000 sequences were measured (“E-score (-0.5 to 0.5)”: median about -0.053, highest 2% from about 0.37 on). The list shows a part of the results.

What follows are sequences tested against Hap1 (UniProt P0CE41) (assay: PBM E-score (8-mer binding enrichment) (E-score (-0.5 to 0.5)); higher = stronger / more preferred TF binding; most listed sequences are background and not binding sites). Settings: protein concentration: 200 nM; construct: GST-DNA-binding domain.
Method: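 Universal 'all 10-mer' protein binding microarrays (Agilent AMADID 015681) probed with GST-tagged S. cerevisiae TFs (full-length or DBD) made by in vitro transcription/translation (PURExpress), about 100-200 nM. Bound TF was detected with fluorescent anti-GST. Each ungapped 8-mer (which stands for itself and its reverse complement) is scored by the PBM enrichment score (E-score), a modified Wilcoxon-Mann-Whitney statistic from -0.5 to +0.5, computed with the Universal PBM Analysis Suite. Scale: above 0.35 generally sequence-specific binding.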

Sequence of UniProt P0CE41 (P0CE41 whole entry, the tested form may be a part): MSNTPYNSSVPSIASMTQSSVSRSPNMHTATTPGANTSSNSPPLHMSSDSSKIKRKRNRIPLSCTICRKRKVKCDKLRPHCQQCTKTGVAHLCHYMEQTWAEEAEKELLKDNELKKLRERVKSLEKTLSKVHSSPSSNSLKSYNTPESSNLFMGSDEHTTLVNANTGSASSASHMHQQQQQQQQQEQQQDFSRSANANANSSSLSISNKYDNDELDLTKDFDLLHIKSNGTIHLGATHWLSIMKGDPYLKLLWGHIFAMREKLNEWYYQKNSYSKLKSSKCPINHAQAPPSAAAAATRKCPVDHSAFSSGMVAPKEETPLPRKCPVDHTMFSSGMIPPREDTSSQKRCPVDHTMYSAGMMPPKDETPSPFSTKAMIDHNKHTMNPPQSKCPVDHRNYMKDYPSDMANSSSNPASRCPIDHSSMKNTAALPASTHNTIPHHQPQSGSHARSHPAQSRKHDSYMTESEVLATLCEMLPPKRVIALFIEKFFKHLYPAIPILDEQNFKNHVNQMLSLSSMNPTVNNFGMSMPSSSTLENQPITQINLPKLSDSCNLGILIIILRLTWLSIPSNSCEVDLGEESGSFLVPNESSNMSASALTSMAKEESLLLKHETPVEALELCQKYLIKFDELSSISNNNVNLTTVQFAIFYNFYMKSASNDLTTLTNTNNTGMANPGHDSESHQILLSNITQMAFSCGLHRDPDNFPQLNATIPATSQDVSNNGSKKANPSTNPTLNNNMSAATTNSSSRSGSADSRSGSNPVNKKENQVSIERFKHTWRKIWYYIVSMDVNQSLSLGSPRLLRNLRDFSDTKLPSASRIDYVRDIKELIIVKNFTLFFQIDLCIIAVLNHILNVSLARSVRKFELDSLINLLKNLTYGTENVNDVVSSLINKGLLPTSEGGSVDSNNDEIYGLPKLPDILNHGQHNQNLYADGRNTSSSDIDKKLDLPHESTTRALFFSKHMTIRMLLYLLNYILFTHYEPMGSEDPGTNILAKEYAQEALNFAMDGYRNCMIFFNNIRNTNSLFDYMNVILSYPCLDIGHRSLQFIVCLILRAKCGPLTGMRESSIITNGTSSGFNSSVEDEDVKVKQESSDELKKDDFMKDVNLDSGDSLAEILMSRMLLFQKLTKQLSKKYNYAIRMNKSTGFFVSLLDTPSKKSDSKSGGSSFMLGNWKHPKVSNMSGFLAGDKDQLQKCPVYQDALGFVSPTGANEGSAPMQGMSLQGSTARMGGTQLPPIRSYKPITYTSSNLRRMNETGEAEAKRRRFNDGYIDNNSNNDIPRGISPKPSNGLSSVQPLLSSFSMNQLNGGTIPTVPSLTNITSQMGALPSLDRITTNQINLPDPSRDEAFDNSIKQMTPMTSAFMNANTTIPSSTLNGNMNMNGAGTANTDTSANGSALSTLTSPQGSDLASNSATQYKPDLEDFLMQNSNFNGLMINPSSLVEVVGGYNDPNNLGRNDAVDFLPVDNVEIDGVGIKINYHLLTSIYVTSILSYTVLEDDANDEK

| Sequence | PBM E-score |
| --- | --- |
| CCATTTAC | -0.0154 |
| AAAGAGGT | -0.196 |
| ACCACTAT | -0.215 |
| AAGGGATT | -0.24 |
| ACTGAGGA | -0.081 |
| ACCCAGCG | -0.104 |
| AGGCCGAA | 0.297 |
| GACATTAC | 0.0642 |
| GGCGATAA | 0.392 |
| CACATCCC | 0.0843 |
| ATGATGAA | 0.0397 |
| CATAGTGG | -0.141 |
| AGAAGCAG | -0.274 |
| CTCTGGTA | -0.264 |
| AGCCGTGG | -0.00519 |
| ACAAGGTG | -0.159 |
| GACGAGGA | -0.155 |
| TATCGCGA | 0.191 |
| ACCAACTG | -0.157 |
| AGATCGTC | -0.163 |
| AGTCGAGG | -0.204 |
| TAATAGAA | -0.157 |
| ACTTACCA | -0.084 |
| CCTTGGGA | -0.149 |
| ACCCCGAC | 0.308 |

| Sequence | PBM E-score |
| --- | --- |
| CGGGCTAA | 0.269 |
| GAACGAAC | -0.055 |
| AAAGTCCA | -0.0824 |
| AGCCTGGA | -0.123 |
| AATCCCTA | -0.0478 |
| AGGGCTAG | -0.229 |
| ACTATCCT | -0.0572 |
| CTCAACTA | 0.0118 |
| AGGGTCAG | -0.191 |
| AGACAGAC | -0.0391 |
| ATATAGAA | -0.0207 |
| GTAGACTA | -0.104 |
| GAGATGGC | 0.206 |
| GTCCAGAA | -0.0915 |
| CGTCACCC | 0.0193 |
| CATAGCGA | -0.0641 |
| GTCCCTGA | -0.219 |
| AGGTGGGG | -0.156 |
| CACAGTTC | 0.00993 |
| CACTTTCG | 0.0972 |
| AAAATGGC | 0.0713 |
| TGCATTAA | -0.134 |
| TCTTACCA | -0.223 |
| CAAGTAGA | -0.055 |
| AGGGACGA | -0.0468 |

| Sequence | PBM E-score |
| --- | --- |
| CCGGCAAC | 0.373 |
| CTAGGAAA | -0.178 |
| ATGACTGG | -0.0207 |
| CCGTCCCG | 0.261 |
| GAGCTATC | 0.229 |
| CCTTATGC | 0.0545 |
| GCGGCGGA | 0.382 |
| CCTACCGC | 0.076 |
| AGGTGTTC | -0.246 |
| CAGGGGGG | -0.211 |
| AGCTATTG | -0.0584 |
| AAGAAGAA | -0.0097 |
| GCGATATA | 0.24 |
| ATGTCGCA | -0.0565 |
| CAGAGGGA | -0.159 |
| CGGAACAC | 0.327 |
| AGTCGTTG | -0.254 |
| ATACGCGC | -0.0101 |
| TAATGCCA | -0.00036 |
| GCCTCAAC | -0.13 |
| ACTTCCTG | -0.224 |
| GAATCAAA | -0.0308 |
| ATACTTAC | -0.0441 |
| CGATGCAG | -0.0118 |
| TAGACACA | -0.156 |

| Sequence | PBM E-score |
| --- | --- |
| AGTTGTCA | -0.106 |
| TCTATCCA | -0.0338 |
| ACTTATCA | -0.148 |
| ATAAGGGG | 0.103 |
| GACAACAA | -0.23 |
| AGAGATAT | -0.111 |
| AATTTTCC | 0.33 |
| GAGTGCAC | -0.0682 |
| AGTGAAGA | -0.0142 |
| AGCGGAAG | 0.244 |
| AACATTTA | -0.0693 |
| AGCCATGA | -0.0149 |
| GGGAGCCC | -0.0881 |
| AAAGAACA | -0.191 |
| CTGTTGTA | -0.126 |
| TAACTTCA | -0.188 |
| CAGATTAG | -0.167 |
| CGGGAAAA | 0.197 |
| CCTATAAA | -0.0104 |
| GCCGGCGA | 0.364 |
| CCAGTGCC | -0.00478 |
| ATTTTGCA | -0.154 |
| GACCGGCC | 0.33 |
| AGCCGTAT | -0.0519 |
| CCGCGCAC | 0.0776 |

| Sequence | PBM E-score |
| --- | --- |
| AATCAAAA | -0.00327 |
| CAATTAAC | 0.148 |
| CCCGCCGG | 0.363 |
| ACGTAGTC | -0.134 |
| GAGGCAGA | -0.261 |
| ACGCAGCC | -0.0627 |
| AAATTAGT | -0.114 |
| AAAAGCCG | 0.414 |
| AGGTGGAC | -0.18 |
| GTTCCGCA | 0.209 |
| GAACGGTA | -0.0132 |
| CCAGTACA | -0.124 |
| ATCTTGAC | -0.203 |
| AATTGGCA | -0.23 |
| AGGGGTTC | -0.0848 |
| GGTCCAGA | -0.0162 |
| CGTGAATC | -0.0317 |
| AAGTAGAT | 0.0343 |
| ACGATGCG | -0.207 |
| CGCTCACG | 0.118 |
| AACGTACG | -0.141 |
| ACTGCCTG | -0.243 |
| ACGTGAAT | -0.229 |
| CGTCTACC | 0.0142 |
| GCGGCTAC | 0.207 |

| Sequence | PBM E-score |
| --- | --- |
| GTGTTCGA | -0.161 |
| CGTTTTCA | 0.0032 |
| CCGCCCCG | 0.347 |
| ATAAAATA | -0.0837 |
| AAACGTCC | -0.091 |
| GATGTCGC | 0.0644 |
| CTCATACC | -0.0563 |
| GATTGGGA | -0.186 |
| CGCTAGTA | 0.22 |
| CTGGTGGC | -0.294 |
| AATCTCAG | -0.161 |
| GCTTCACA | -0.21 |
| ACTTCTTG | -0.128 |
| AGTCGCAT | -0.159 |
| ATTATGAA | -0.0166 |
| GCTCAAAC | 0.18 |
| GCGAGCAC | -0.187 |
| ATTCTTCG | 0.105 |
| CGTGATAA | -0.0733 |
| GAGGCCAC | -0.189 |
| AGTTCACC | 0.0128 |
| GTTTGGTA | -0.00217 |
| CCTCACAG | -0.185 |
| CTGCATAA | -0.0234 |
| AAAGCCTT | -0.182 |

| Sequence | PBM E-score |
| --- | --- |
| CAATGATA | -0.199 |
| AGGCCACA | -0.218 |
| AGGTAATA | 0.0739 |
| GTGGCCCA | -0.113 |
| ATCCCTCG | 0.0849 |
| CCGCGGCG | 0.317 |
| GACGCCTA | 0.0426 |
| CCAGTGAA | -0.166 |
| TCCCCAAA | -0.216 |
| CGATTGTC | 0.0632 |
| CAAAAGCC | 0.161 |
| AATACAGC | 0.0854 |
| CTGATCGA | -0.208 |
| ACTTCATC | -0.0854 |
| GAAGGTAC | -0.267 |
| AGGTCGTG | -0.347 |
| CAGCGCAG | -0.114 |
| CACGCTGA | -0.22 |
| CAAGACCC | -0.0402 |
| AAGACTCG | 0.0784 |
| AAGGCTGA | -0.16 |
| AAATTGTG | -0.296 |
